# Reference: patent US10933032B2, “Methods for the treatment of cancer using coenzyme Q10 combination therapies” (Berg LLC, priority 2013, dated 2021)
# Legend:
# [1] = system: non-tumorigenic mammary cells (MCF12A); assay: Number of viable cells; type: cell-based; settings: CoQ10 (100 μM) alone, or pretreatment / cotreatment with 5-FU, doxorubicin or SN38, 48 hours
# Protocol: Human breast cancer cells of varying receptor status (SKBR3, MDA-MB231) were subjected to either (a) pretreatment with CoQ10 (6 h) followed by co-incubation with chemotherapeutic agents (5-fluorouracil, 5-FU; doxorubicin, Doxo; SN38, irinotecan active metabolite) for 48 h, or (b) co-treatment with CoQ10 and chemotherapeutic agents. Cancer cell responses were compared to non-tumorigenic mammary cells (MCF12A). […] Propidium iodide (PI) and CFSE Cell Tracer were used to measure cell death and proliferation, respectively, in the treated cells.
# [2] = system: Human pancreatic cancer cells (PcCa2); assay: Number of viable cells, CoQ10 pretreatment or cotreatment with gemcitabine (Example 18); type: cell-based; settings: cotreated with 100 μM CoQ10 and gemcitabine (0.1, 1 and 5 μM), *p<0.05, FIG. 26
# Protocol: Human pancreatic cancer cells (PcCa2) were pretreated with 100 μM CoQ10 followed by treatment with gemcitabine (0.1, 1 and 5 μM), or cotreated with CoQ10 and gemcitabine.
# [3] = system: Hep3B liver cancer cells; settings: CoQ10 (100 μM) with irinotecan (SN38), cisplatin, 5-fluorouracil or doxorubicin, FIGS. 9A-9C and 10
smiles,measurement,setting,value
"COC1=C(OC)C(=O)C(C/C=C(\C)CC/C=C(\C)CC/C=C(\C)CC/C=C(\C)CC/C=C(\C)CC/C=C(\C)CC/C=C(\C)CC/C=C(\C)CC/C=C(\C)CCC=C(C)C)=C(C)C1=O [CoQ10, Coenzyme Q10]",Number of viable cells,[1],minimal effects
same,"Number of viable cells compared to gemcitabine alone, cotreatment",[2],significantly decreased the number of viable cells
same,"Efficacy of chemotherapeutic agents (cell death, number of live cells)",[3],increase the efficacy of all of the chemotherapeutic agents
